{"source": "paper PMC10696740", "about": "(BMC Biology, 2023)", "target": "PaEF4", "type": "binding, P. anaerobius", "conditions": "BLI, PaEF4 58 μM", "procedure": "A streptavidin matrix-coated sensor chip (SA chip) was firstly equilibrated with buffer A (lysis buffer with 0.05% Tween 20) followed with the immobilization BBP (200 μM) on the SA chip. Next, proteins with increasing concentrations (0.23, 0.91, 3.63, 14.50, and 58.00 μM) were passed on to the chip for the measurement of changes in response unit (nm). The program comprises the stabilization of the baseline with the buffer A for 1 min, 6 min incubation of the BBP with the SA chip for immobilization, stabilizing the baseline again for 3 min, association enabling interaction between proteins and compounds for 4 min, and dissociation for 4 min followed by a regeneration step. […] Raw data were pre-processed, analyzed, and fitted using the 1:1 binding model in the manufacturer’s software (9.0, Pall ForteBio Corp, Menlo Park, CA, USA) to generate kinetic parameters.", "note": "A number of entries come with more than one value. This list holds those alone. The source may hold further records. Values that stand side by side seem to repeat one measurement on other runs, samples or individuals. A tag in brackets gives the origin of a value. Letters count within one entry."}
{"smiles": "COc1ccc2cc3[n+](cc2c1OC)CCc1cc2c(cc1-3)OCO2", "note": "[BBR, Berberine]", "values": [{"measurement": "binding affinity of BBR with PaEF4", "value": "non-detectable binding affinity [passage A] and doesn’t bind [passage B]"}]}
